Source: PMC7765025
Changes are numbered by the printed parent chain. These are yes or no findings as the source states them, for the method shown. For part of these data: In cells and extracts the contact can be indirect. Some results given as binding are weak or reduced against the parent protein; the word gives no strength. For part of these data: Where a sequence is shown, tags or fusion partners need not be part of it. One block for each binder: values may come before it.

Legend:
[1] = molecular target: T1, purified recombinant TAK1 (UniProt O43318); assay: pull-down; purified recombinant TXNIP and TAK1 proteins (Figure S3A; Figure S3 is titled GST pull-down assays); which protein was held is not told; both purified
T1 sequence: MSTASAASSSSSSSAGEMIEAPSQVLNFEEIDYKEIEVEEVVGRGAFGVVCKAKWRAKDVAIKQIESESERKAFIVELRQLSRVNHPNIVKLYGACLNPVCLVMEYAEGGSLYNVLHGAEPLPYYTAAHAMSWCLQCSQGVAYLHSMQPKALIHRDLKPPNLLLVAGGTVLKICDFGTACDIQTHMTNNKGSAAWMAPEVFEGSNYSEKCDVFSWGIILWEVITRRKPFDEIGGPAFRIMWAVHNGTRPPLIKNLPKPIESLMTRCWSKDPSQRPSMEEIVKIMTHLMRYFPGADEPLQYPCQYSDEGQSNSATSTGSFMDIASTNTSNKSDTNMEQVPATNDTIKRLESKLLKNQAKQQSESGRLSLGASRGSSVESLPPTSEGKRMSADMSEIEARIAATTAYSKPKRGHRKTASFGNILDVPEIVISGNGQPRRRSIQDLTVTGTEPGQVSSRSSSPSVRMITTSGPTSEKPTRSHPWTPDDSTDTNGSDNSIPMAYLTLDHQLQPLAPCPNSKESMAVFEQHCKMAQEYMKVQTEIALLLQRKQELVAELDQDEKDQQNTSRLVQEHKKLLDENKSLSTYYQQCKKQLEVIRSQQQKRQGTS

[2] = molecular target: T2, GST-fused TAK1 (35–291) (human) (UniProt O43318); assay: pull-down; GST pull-down from lysates (RIPA buffer) of transiently cotransfected HEK 293 cells; glutathione Sepharose 4B, 3 h at 4 °C, washed four times; blots with α-FLAG and α-GST
T2 sequence: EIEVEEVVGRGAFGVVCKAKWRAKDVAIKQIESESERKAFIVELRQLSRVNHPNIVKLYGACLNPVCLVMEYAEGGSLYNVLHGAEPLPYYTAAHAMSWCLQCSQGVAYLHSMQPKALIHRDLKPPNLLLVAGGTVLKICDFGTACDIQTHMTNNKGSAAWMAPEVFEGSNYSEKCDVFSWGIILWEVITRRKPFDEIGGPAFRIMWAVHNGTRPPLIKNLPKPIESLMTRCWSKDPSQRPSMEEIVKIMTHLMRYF

[3] = molecular target: T3, GST-fused TAK1 (pEBG-TAK1) (human) (UniProt O43318); assay: as above
T3 sequence: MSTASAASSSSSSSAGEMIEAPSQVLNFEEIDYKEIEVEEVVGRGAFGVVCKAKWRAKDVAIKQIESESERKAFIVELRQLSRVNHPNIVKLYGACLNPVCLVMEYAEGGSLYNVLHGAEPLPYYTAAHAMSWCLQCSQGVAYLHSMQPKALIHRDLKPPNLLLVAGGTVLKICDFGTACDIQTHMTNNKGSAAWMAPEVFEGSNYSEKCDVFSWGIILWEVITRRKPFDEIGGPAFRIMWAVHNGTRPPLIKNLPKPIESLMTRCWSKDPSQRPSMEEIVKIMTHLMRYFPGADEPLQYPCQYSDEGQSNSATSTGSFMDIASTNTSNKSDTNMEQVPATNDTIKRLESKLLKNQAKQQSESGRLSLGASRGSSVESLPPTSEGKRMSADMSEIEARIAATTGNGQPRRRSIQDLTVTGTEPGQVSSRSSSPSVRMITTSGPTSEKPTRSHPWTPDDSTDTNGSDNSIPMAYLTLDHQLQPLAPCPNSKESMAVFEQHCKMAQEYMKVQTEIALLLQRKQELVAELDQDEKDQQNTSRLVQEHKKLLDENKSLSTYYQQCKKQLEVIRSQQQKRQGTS

[4] = molecular target: T4, TAK1 (K63W), kinase dead form (pEBG-TAK1 (K63W)) (human) (UniProt O43318); assay: as above
T4 sequence: T3 sequence with K63W

[5] = molecular target: T5, endogenous TAK1 of NK92 cells (human (endogenous in NK92)) (UniProt O43318); assay: co-IP; endogenous proteins in NK92 lysates (RIPA buffer), immunoprecipitated with TAK1 antibody and protein G agarose; cells with or without Pam3CSK4 (1 µg/mL) for 1 h
T5 sequence: T1 sequence

[6] = molecular target: T6, GST-fused TXNIP (pEBG-TXNIP) (UniProt Q9H3M7); assay: pull-down; GST pull-down from lysates (RIPA buffer) of transiently cotransfected HEK 293 cells; glutathione Sepharose 4B, 3 h at 4 °C, washed four times; blots with α-FLAG and α-GST
T6 sequence: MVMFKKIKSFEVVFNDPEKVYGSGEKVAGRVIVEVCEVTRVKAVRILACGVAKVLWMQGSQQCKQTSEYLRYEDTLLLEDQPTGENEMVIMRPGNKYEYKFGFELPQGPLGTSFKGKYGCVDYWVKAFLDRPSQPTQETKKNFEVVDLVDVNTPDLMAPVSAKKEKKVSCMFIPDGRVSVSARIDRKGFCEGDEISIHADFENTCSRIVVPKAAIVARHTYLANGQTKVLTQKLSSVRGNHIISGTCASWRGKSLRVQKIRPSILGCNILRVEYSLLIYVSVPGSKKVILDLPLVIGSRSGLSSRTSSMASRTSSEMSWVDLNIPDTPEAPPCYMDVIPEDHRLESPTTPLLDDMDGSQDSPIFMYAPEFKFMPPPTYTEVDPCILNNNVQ

- binding [1]: binds
B1: purified recombinant TXNIP (protein, UniProt Q9H3M7 1-391)
chain: T6 sequence

- binding [2]: binds
- binding [3]: binds
- binding [4]: binds
B2: FLAG-tagged TXNIP (full) (protein, UniProt Q9H3M7 1-391)
chain: T6 sequence

- binding [5]: binds
B3: endogenous TXNIP of NK92 cells (protein, UniProt Q9H3M7 1-391)
chain: T6 sequence

- binding [6]: binds
B4: FLAG-TAK1 (pFLAG-TAK1) (protein, UniProt O43318-2 1-579)
chain: T3 sequence
